Laboratory results from PubChem BioAssay AID1240 (Sanford-Burnham Center for Chemical Genomics, 2008).
In all, about 50,000 compounds went through this assay and about 800 (1.6%) showed an effect of 50% or more. The list shows a part of the results.

target: Bcl-2-like protein 10 (Homo sapiens) (UniProt Q9HD36); assay: TR3 peptide-Bcl-B binding displacers, biochemical primary FP assay, phenotype converters (AID 1240); settings: GST-Bcl-B / FITC-TR3 peptide fluorescence polarization; stronger effect = higher value; compound at 3.75 mg/L;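 further: 0% = Bcl-B with tracer peptide and DMSO and 100% = tracer peptide lacking Bcl-B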
UniProt Q9HD36, sequence (Q9HD36 whole entry, looked up): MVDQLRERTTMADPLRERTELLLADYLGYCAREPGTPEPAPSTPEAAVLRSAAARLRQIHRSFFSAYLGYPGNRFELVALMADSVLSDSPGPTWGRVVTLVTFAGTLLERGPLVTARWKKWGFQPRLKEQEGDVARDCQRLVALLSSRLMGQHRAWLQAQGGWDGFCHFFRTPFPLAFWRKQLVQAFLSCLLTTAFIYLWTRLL

Row | SMILES | displacement [%]
1 | CCOC(=O)c1c(C)[nH]c2cc(Br)c(OC)cc12 | -17.8
2 | CCN(CC)C(=O)C1CC(=O)OC12CCCCC2 (stereo not given) | -8.4
3 | COc1cc(/C=C2\SC(=S)N(NC(=O)c3ccncc3)C2=O)ccc1OCc1ccccc1Cl | -12.2
4 | CC1CCCN(C(=O)C(Sc2ccccc2)c2ccccc2)C1 (stereo not given) | 7.1
5 | N#CC(C#N)=NNc1ccc(O)c(C(=O)O)c1 | 18.2
6 | Cc1ccc(/C=C2\SC(=O)N(CCC(=O)NNC(=O)c3cccc(Cl)c3)C2=O)cc1 | 0.6
7 | COCCNCC(=O)C12CC3CCC(CC(C3)C1)C2 | -0.8
8 | CCOc1cc(/C=N/NC(=O)CC2C(=O)NN=C2C)ccc1O (stereo not given) | -6.7
9 | CCOC(=O)/C=C(\C)CC/C=C(/C)CC | -4.1
10 | COc1ccc(S(=O)(=O)NNC(=O)C23CC4CC(CC(C4)C2)C3)cc1 | 11.9
11 | O=C(Cc1ccccc1)NN1C(=O)/C(=C/c2cccs2)SC1=S | 24.9
12 | Cc1ccc(C(=O)Nc2ccc(Cl)cc2C)cc1 | -12.9
13 | CC(C)(C)c1cc(/C=N/O)c(C(C)(C)C)s1 | -2.4
14 | CC(C)CNC(=O)c1cccc(NC(=O)CN2C(=O)c3ccccc3C2=O)c1 | 13.8
15 | Cc1cccc(C(=O)Nc2ccc(Oc3ccccc3)cc2)c1 | -0.1
16 | O=C(Oc1ccc(/C=N/n2cnnc2)cc1)c1ccco1 | -7.8
17 | CN(C)c1ccc(/C=C2/C(=O)NN(c3cccc(Cl)c3)C2=O)cc1 | 13.5
18 | Cc1cc(C)c2nc3s/c(=C\c4ccc(-c5cc(C)c(C)cc5[N+](=O)[O-])o4)c(=O)n3c2c1 | -4.7
19 | O=C(Nc1ccc(F)c(Cl)c1)c1ccc([N+](=O)[O-])cc1 | 6.3
20 | Cc1cc(Br)ccc1NC(=O)c1ccc(C)c([N+](=O)[O-])c1 | 8.6
21 | COc1ccc2c(c1OC)C(=O)OC2Nc1ccc(S(N)(=O)=O)cc1 (stereo not given) | 3.9
22 | Cc1oc(-c2ccccc2)cc1C(=O)O | -10.4

Row | SMILES | displacement [%]
23 | Cc1cc(C)nc(SCC(=O)N/N=C/c2ccc(O)cc2)n1 | 3.9
24 | O=C(CN1C(=O)c2ccccc2C1=O)Nc1cc([N+](=O)[O-])ccc1Cl | 14.5
25 | O=C(Nc1ccccc1Cl)C(c1ccccc1)c1ccccc1 | 5.9
26 | CCc1nnc(/N=C/c2c(C)[nH]n(-c3ccc(C)c(C)c3)c2=O)s1 | 1.2
27 | Cc1ccccc1C(=O)Oc1ccccc1C(=O)N1CCOCC1 | -6.6
28 | COC(=O)c1ccc(C(=O)OC)c(NC(=O)CCC(=O)O)c1 | 8.2
29 | COc1ccc(/C=C2\C(=O)NC(=O)N(c3cc(C)cc(C)c3)C2=O)cc1[N+](=O)[O-] | -14.2
30 | CCN(C(=O)c1c(-c2c(Cl)cccc2Cl)noc1C)c1ccccc1C | 6.8
31 | CC(=O)Nc1ccc(NS(=O)(=O)Cc2ccccc2)cc1 | 12.8
32 | CCOC(=O)NC(NC(=O)OCC)c1cccc([N+](=O)[O-])c1 | -5.1
33 | Cc1ccc(NC(=O)COc2ccc(Br)c(C)c2)c([N+](=O)[O-])c1 | 11.5
34 | Cc1ccccc1C(=O)NNC(=O)c1cccc2ccccc12 | -7.1
35 | CCOc1ccc(NC(=O)c2c(NC(=O)c3ccc([N+](=O)[O-])cc3)sc3c2CCCC3)cc1 | 1
36 | COc1ccccc1CC(=O)Nc1ccc(Br)cc1C | -6.4
37 | Cc1cc(=O)[nH]c(SCC(=O)c2ccc(Br)cc2)c1C#N | 1.1
38 | Cc1nc2ccc(NC(=S)N(C)C)cc2nc1C | -12
39 | CC(=O)Nc1cc(-c2ccc(Br)cc2)nn1Cc1ccccc1 | -4.8
40 | O=C(Nc1ccccc1)/C(=C\c1ccco1)NC(=O)c1ccco1 | -5.8
41 | O=C(Cc1ccccc1)N1N=C(c2cccc(Br)c2)CC1(O)C(F)(F)F (stereo not given) | 6.6
42 | Cc1cc(C)c(OCC(=O)Nc2c(C)cccc2C)c(C)c1 | 11.7
43 | O=C(/C=C/c1ccccc1)NC(=S)Nc1cccc2ccccc12 | -5
44 | COC(=O)c1c(C)oc2ccc(OC/C=C/c3ccccc3)cc12 | 8.9

Row | SMILES | displacement [%]
45 | CCOc1ccccc1NC(=O)c1c(Cl)cccc1Cl | -2.2
46 | Cc1cc(C)nc(/N=C(\N)Nc2cc(Cl)cc(Cl)c2)n1 | 12.3
47 | COC(=O)c1ccc(C(=O)Nc2cc(Cl)ccc2Cl)cc1NC(=O)COc1ccc(F)cc1 | 9.9
48 | CCOC(=O)CSCc1nc2c(c(=O)[nH]1)C1(CCCC1)Cc1ccccc1-2 | 0
49 | O=C1N/C(=N\N=C\c2ccccc2F)SC1Cc1ccccc1[N+](=O)[O-] (stereo not given) | 7.3
50 | O=C1CC(c2ccccc2)CC2=C1C(c1coc3ccccc3c1=O)Nc1ccccc1N2 (stereo not given) | -3.3
51 | O=C1CC(Sc2nc3ccccc3s2)C(=O)N1c1ccccc1I (stereo not given) | -17.4
52 | COc1ccc(CCNC(=O)COc2cc(C)c(Cl)c(C)c2)cc1 | 7.5
53 | COCCOC(=O)c1c(C)oc2ccc(OC(=O)c3cccs3)cc12 | 6.9
54 | COc1ccc(CCNc2cc(N3CCOCC3)ccc2[N+](=O)[O-])cc1OC | 7.3
55 | COc1ccc(/C=C2\SC(=S)NC2=O)cc1C | 44.9
56 | COc1ccc([N+](=O)[O-])cc1NC(=O)Cc1ccc(OC)c(OC)c1 | -5.7
57 | COc1cc(S(=O)(=O)N2CCOCC2)c(OC)cc1Cl | -6
58 | NC(=O)C(=O)NCc1ccc(Cl)cc1 | 6.7
59 | O=C(CN1CCCCC1)Nc1ccccc1I | 1.3
60 | COC(=O)c1sccc1NC(=O)/C=C/c1ccc(OC)cc1 | 6.8
61 | O=[N+]([O-])c1c(Nc2ccccc2O)ncnc1Nc1ccccc1O | 28.4
62 | COC(C)(C)C(=O)CC(=O)C(C)(C)C | 3.4
63 | CS(=O)(=O)N(Cc1ccc(Cl)cc1)c1ccc(C(=O)NCc2ccco2)cc1 | -14.6
64 | CNC(=O)/C=C1\NC(C)(C)Cc2ccccc21 | -7.1
65 | Cc1ccc(NC(=O)NC2CCCC2)cc1 | 2.4
66 | C=CCOc1ccc(/C=C2\C(=O)NC(=S)N(c3ccccc3)C2=O)cc1OC | 2.2

Row | SMILES | displacement [%]
67 | O=C(O)c1cccc(C(=O)O)c1N(c1ccccc1)c1ccccc1 | 10.7
68 | O=S(=O)(NCc1ccccc1Cl)c1ccccc1 | -3.6
69 | O=C(Nc1ccc(S(=O)(=O)c2ccc(NC(=O)C(F)(F)F)cc2)cc1)C(F)(F)F | 0.6
70 | CCOC(=O)c1c(C)oc2ccc(N(C(=O)c3ccncc3)S(=O)(=O)c3ccc(C)cc3)cc12 | -1.8
71 | Cc1ccc(-n2nc(C)c3c(=O)oc(C)cc32)cc1 | 16.1
72 | COc1ccc(NS(=O)(=O)c2ccc(NC(=S)NC(=O)C34CC5CC(CC(C5)C3)C4)cc2)nn1 | 3.6
73 | CC(=O)N(C)c1ccc(NC(=O)COc2ccc3ccccc3c2)cc1 | 1.8
74 | COc1ccccc1N1CCN(/N=C\c2ccc(O)cc2O)CC1 | -4.6
75 | CCOC(=O)C1=C(C)NC(=O)NC1c1ccc(F)cc1F (stereo not given) | -4.9
76 | COc1cccc(NC(=O)CN(c2ccc(C)cc2)S(C)(=O)=O)c1 | -2.2
77 | CC1(C)Oc2ccc3ccc(=O)oc3c2/C(=C/N2CCOCC2)C1=O | -5.9
78 | Cc1onc(-c2ccccc2)c1C(=O)Nc1ccc([N+](=O)[O-])cc1Br | 5.4
79 | O=C(O)CCC(=O)Nc1sc2c(c1C(=O)Nc1ccccc1)CCCC2 | 4.5
80 | COC(=O)C1=NN(C(C)=O)C2C(=O)N(c3cccc(C)c3)C(=O)C12 (stereo not given) | 7.5
81 | O=C(O)CN(c1ccccc1[N+](=O)[O-])S(=O)(=O)c1ccccc1 | 6.8
82 | Cc1ccc(S(=O)(=O)N(CCc2ccccc2)CC(=O)NCc2cccnc2)cc1 | 14.2
83 | COc1ccccc1NC(=O)C1CC(C)=C(C)CC1C(=O)O (stereo not given) | -2.9
84 | Cc1c(C)c(COCc2c(C)c(C)c(C=O)c(C)c2C)c(C)c(C)c1C=O | -6.7
85 | CCOc1cccc(-c2nnc(NC(=O)Nc3ccccc3)s2)c1 | 7.8
86 | Cc1cc(C)c(NC(=O)C(C)Sc2nc3ccccc3s2)c(C)c1 (stereo not given) | 8.7
87 | Cc1cc(C)c(NC(=O)C(C)Sc2ccccn2)c(C)c1 (stereo not given) | 39.1
88 | c1ccc(Nc2ccccc2Nc2ccccn2)nc1 | 22.6

Row | SMILES | displacement [%]
89 | O=C1Nc2ccc(Br)cc2C12NN=C(c1ccccc1)S2 (stereo not given) | -8
90 | CCCn1c(/N=C/c2ccccc2O)nc2ccccc21 | 10.9
91 | COc1ccc(/C=C(\NC(=O)c2ccc([N+](=O)[O-])cc2)C(=O)NCCN2CCOCC2)cc1 | 6.8
92 | COC(=O)c1ccccc1NC(=O)CN(c1ccc(C(C)C)cc1)S(=O)(=O)c1ccccc1 | 1.1
93 | O=C1c2ccccc2C(=O)N1CCCc1nc2ccccc2c(=O)n1-c1nccs1 | 2.1
94 | CC1(C)CC(=O)C2=C(C1)c1c(ccc3ccccc13)NC2c1ccccc1[N+](=O)[O-] (stereo not given) | 37.3
95 | CCOc1ccc(N(CC(=O)Nc2ccc(OC)c(OC)c2)S(=O)(=O)c2ccc(SC)cc2)cc1 | 9.6
96 | COc1ccc(N(CC(=O)NC(C)(C)C)S(=O)(=O)c2ccc(C)cc2)cc1OC | 6.6
97 | CCOc1ccc(/C=C2\C(=O)NC(=S)N(c3ccccc3C)C2=O)cc1Cl | 16.6
98 | Cc1ccc(S(=O)(=O)Nc2cc(Cl)ccc2Cl)c(C)c1 | 10
99 | COC(=O)c1ccc(NC(=S)NC(=O)c2ccn(C)n2)cc1 | -6.9
100 | CSc1nc2sc3c(c2c2nnnn12)CCN(C)C3 | 13.5
101 | Cc1cc(C)n(-c2cc(N/N=C/c3cccc(Cl)c3)nc(C)n2)n1 | -8.5
102 | COc1ccc(CN2CCN(Cc3ccccc3Cl)CC2)c2ccccc12 | -1.7
103 | Cc1ccc(C2=C/C(=C\c3cc([N+](=O)[O-])ccc3Cl)C(=O)O2)cc1 | 7.7
104 | NC1=NC(=O)/C(=C/c2cc(Br)ccc2OCc2ccccc2)S1 | 47.9
105 | NC(=S)n1[nH]c(-c2ccccc2)c(N=Nc2ccc(C(=O)O)cc2)c1=O | -7.8
106 | CCC1(C)CC(CCNCc2ccc(F)cc2)(c2ccc(C)cc2)CCO1 (stereo not given) | -10.3
107 | CCOc1cc(/C=N/Nc2nc(N3CCOCC3)nc(N3CCOCC3)n2)ccc1OC(=O)c1ccco1 | 0.9
108 | Cc1ccc2ncnc(Nc3ccc(Cl)cc3)c2c1 | -13.5
109 | CCSC(C)CC1C/C(=N/O)c2c(CC)noc2C1 (stereo not given) | 2.8
110 | CC(C)(C)OC(=O)N1N=C(C(F)(F)F)CC1(O)C(C)(C)C (stereo not given) | 10
